In the supplement of paper PMC3334620:
Over roughly 33,000 sequences, “E-score (-0.5 to 0.5)” has its median near -0.021; the highest 2% begin near 0.32. The list shows a part of the results.

Target: T1, Zap1 (UniProt P47043)
T1 sequence: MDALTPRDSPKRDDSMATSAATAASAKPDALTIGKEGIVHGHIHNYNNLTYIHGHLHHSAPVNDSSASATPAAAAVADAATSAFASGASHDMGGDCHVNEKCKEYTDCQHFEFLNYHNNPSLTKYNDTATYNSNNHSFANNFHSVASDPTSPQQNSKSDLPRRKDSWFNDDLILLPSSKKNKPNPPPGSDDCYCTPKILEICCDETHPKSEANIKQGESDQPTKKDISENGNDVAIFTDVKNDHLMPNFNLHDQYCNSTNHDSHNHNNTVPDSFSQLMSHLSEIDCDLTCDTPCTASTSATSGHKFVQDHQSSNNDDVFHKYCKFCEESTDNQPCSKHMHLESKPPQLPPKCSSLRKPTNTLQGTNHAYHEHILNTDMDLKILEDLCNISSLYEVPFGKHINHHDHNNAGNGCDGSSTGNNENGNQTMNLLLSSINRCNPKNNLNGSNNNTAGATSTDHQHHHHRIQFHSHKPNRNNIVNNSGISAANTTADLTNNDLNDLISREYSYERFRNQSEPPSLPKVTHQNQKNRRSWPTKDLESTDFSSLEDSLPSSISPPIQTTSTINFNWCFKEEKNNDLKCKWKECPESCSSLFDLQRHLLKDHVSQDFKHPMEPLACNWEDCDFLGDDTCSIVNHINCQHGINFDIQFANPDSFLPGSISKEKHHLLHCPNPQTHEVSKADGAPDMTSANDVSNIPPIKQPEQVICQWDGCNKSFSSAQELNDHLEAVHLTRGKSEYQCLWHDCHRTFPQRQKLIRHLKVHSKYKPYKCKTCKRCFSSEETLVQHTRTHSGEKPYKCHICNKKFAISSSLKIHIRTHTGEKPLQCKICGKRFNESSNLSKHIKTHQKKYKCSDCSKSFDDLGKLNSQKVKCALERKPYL
Test: PBM E-score (8-mer binding enrichment) (E-score (-0.5 to 0.5)); higher = stronger / more preferred TF binding; most listed sequences are background and not binding sites
Conditions: protein concentration: 200 nM; construct: GST-full length
Method: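 Universal 'all 10-mer' protein binding microarrays (Agilent AMADID 015681) probed with GST-tagged S. cerevisiae TFs (full-length or DBD) made by in vitro transcription/translation (PURExpress), about 100-200 nM. Bound TF was detected with fluorescent anti-GST. Each ungapped 8-mer (which stands for itself and its reverse complement) is scored by the PBM enrichment score (E-score), a modified Wilcoxon-Mann-Whitney statistic from -0.5 to +0.5, computed with the Universal PBM Analysis Suite. Scale: above 0.35 generally sequence-specific binding.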

Sequence	PBM E-score
ACAATCCG	0.0979
GGTAAAAC	0.113
CTGAGCGA	-0.0845
AGGGCGCA	-0.202
GAGGCCTA	-0.1
ATGGAGGA	-0.26
CAGGGTCA	0.417
CACGTATC	-0.218
CAAGGTGG	0.131
CACAACGA	0.0452
CGCTGCCC	-0.162
CCTTGTGA	0.193
CGGTTTCA	0.03
AGCTAAGG	-0.17
ACCACCAC	0.294
AGAAATTC	-0.0398
AAATCGCA	0.0208
CAGTGCCG	-0.0624
GCAGATTA	-0.0315
AATTATTC	0.133
CGGGGTAG	0.205
AAAGCTTT	-0.06
ATAGTCTC	0.103
ACAGCCCG	-0.172
AAAACAGT	0.0314

Sequence	PBM E-score
ACTCAGAC	-0.0323
AGTACGGA	-0.0532
AGTCTGAA	-0.206
ACGCCTTG	-0.13
CTGATGGA	-0.254
AAAAGGCC	0.115
AGAGAGAA	-0.157
CAATAAAA	0.149
CCGGCTGC	-0.041
AATCTCTG	-0.1
AGAGGAAA	0.12
CTGTAGAA	0.0266
GAGTCAGA	-0.157
AACTCCGA	-0.0253
ACTAACAG	0.155
AGTGTTAA	0.107
CCAATTAA	0.205
AAAAACGG	0.196
CCGTTATA	0.103
ACACAGAG	-0.144
AGGACAAT	-0.00527
ATGCATTA	0.17
GATAGCAA	-0.0255
ACTGAGCC	-0.0274
ACAACGCG	-0.0352

Sequence	PBM E-score
GAGTGTAA	-0.139
GAGCTCGC	-0.0688
AGGGAACC	0.159
CGATCCTA	-0.0994
CCAGTATC	-0.0933
AAGGAAAA	0.0425
AAGGCGGC	-0.0887
AGGGCAAT	-0.156
ACATAGTA	0.0554
AACTTAAT	0.165
AACATATG	-0.117
CCAATCAA	0.0678
AGGGTAAA	0.235
CTATGCGA	-0.102
CCTTGAGA	0.225
ACCAGATC	-0.0162
ATAATCAT	0.255
CATGACCA	0.284
CCCGTGCG	-0.00953
GGCTAGCA	-0.222
ATCGAACG	-0.183
AAATATGA	0.153
ATGACGCC	-0.139
ACCTACCT	0.167
ACATCTGC	-0.225

Sequence	PBM E-score
GGTGTCGA	0.0564
CTGAGGAC	-0.143
GCGCAGTA	-0.104
TTGTTAAA	-0.04
AGAACAGG	-0.0908
CATAATCC	0.00118
CTTGCCCC	-0.232
GAATGGGA	-0.0392
ATATCTTC	0.0902
ACTACGTC	-0.142
GATCGTCC	0.0556
CACGGTTC	-0.13
CCGAATTA	0.142
AAGCACCC	0.0716
AAGGTGAG	-0.12
AAGCCTCT	-0.3
AAGCTGCA	0.00272
CAAATTGA	-0.0375
TACGAACA	0.151
CAACCTCA	0.0787
CGGAAGAA	-0.141
GCCCTTGA	0.00462
CTACTGCC	-0.244
CCCGCAAC	0.229
TAGATGAA	0.046

Sequence	PBM E-score
ACGCTAGT	-0.124
CGGTGGCC	0.104
CGGCAGGA	-0.219
GAGGCTAA	0.12
AAAAACTG	0.0294
GAGGTGCC	0.0135
GGGAATGA	0.0419
TACGACTA	0.147
ATCTATTG	0.0284
GCCACTTA	-0.108
AGACGCGG	0.0943
CCCCACTA	-0.131
CAGCATAC	-0.143
GCACCAAC	-0.00297
GCGCGACA	0.203
CAGAGCTC	-0.311
ACGGTTCA	-0.226
GAGTTACC	0.3
ACGGGCTC	-0.377
GAACCGTC	-0.144
AGGCACAA	-0.0273
AGAGATCT	-0.274
GATGTTCA	0.002
ACAAGTTG	-0.0793
GACGGTCC	-0.0199

Sequence	PBM E-score
CCGGAGCG	-0.218
AACAAACA	0.204
AAATTTAG	0.161
GCCAACGA	-0.0829
CAACGGGC	-0.196
CCTGCGTC	-0.217
CTGTTATA	0.115
ACGACGAG	-0.194
AAGCTATT	-0.138
GATTGTAA	0.054
AAACGGAG	-0.152
CAACTTAG	0.0448
CTACGCCA	-0.285
CCGAAGTC	-0.0936
GCACACCC	0.022
ACTACGCT	-0.189
TGCATCCA	-0.0336
TCAGGGCA	-0.001
TCTGTTAA	0.0669
ATTAGAAC	0.0615
ACATGAGA	0.141
AAACCCCT	0.188
AGCACGCA	-0.246
GGTAAGCA	0.0587
ACGGGTTG	0.158

Sequence	PBM E-score
ATGGGCGC	-0.206
AATCTGAG	-0.0252
CTTTAAAA	0.00534
GAGTATAC	-0.126
GTGCCCAA	-0.0175
ACGGTCTG	0.00115
CAATACGA	0.113
GCCTTGCC	-0.236
CAGCTACA	-0.143
GACTAAGC	-0.096
GGGACAAC	0.0321
ATTAAGTA	-0.0232
CGTTAATA	0.11
CGGTTAGC	0.151
TATGACAA	0.11
CAATCAGG	0.122
GCCGGCCC	-0.0753
CAAGCTTA	0.0952
GACTGTCC	-0.206
GGGAAAAC	-0.241
ATTGCAAA	0.167
ACCATTCG	0.0351
CGTAAGTC	-0.0622
ATTTGTTG	0.155
ACTAGTCT	-0.0426

Sequence	PBM E-score
AATGGAGA	-0.226
AGGCAAAG	-0.141
CGGTAGGA	-0.0778
GACCCTGC	0.283
AGGGATAA	0.0891
ATTCACGA	0.0347
GCCGCCGA	-0.12
GCACCGGC	0.0464
TACAAGTA	0.0103
ATCCTACG	-0.187
CGTGCCGA	-0.241
AGGGCGTA	0.00973
ATATCCAG	-0.0336
CCCACTTC	-0.107
ATCTACAT	-0.0783
GGGTACGA	0.0331
ATAGGGAG	-0.26
ATAATCCA	0.0492
AAACATAA	0.171
CCGGTCGA	-0.18
TAAACATA	0.159
AACCATGC	0.156
AGTTAAAC	0.0887
ACGGCCAG	-0.0756
AAAGTCAA	0.0202

Sequence	PBM E-score
GGCCCAAC	0.0448
CCGGAACA	-0.0587
ACCACATG	0.0314
GCTCTGAC	-0.21
TAAATGAA	0.0661
ACCCCGTC	-0.00633
ACTTAGGC	0.067
CTGCCAAC	-0.202
AGGGTTTC	0.232
GCTGTCAC	-0.137
CGGTTCCA	0.132
GATCACAC	-0.0542
CCCGGAGG	0.138
CACTCTAG	0.0467
CTGAAAAA	0.116
AGAACGGG	-0.147
ACAACGTA	-0.0475
ACACCGCC	0.0544
CCTTATTC	-0.0613
